# Source: PubChem BioAssay AID463173 (ICCB-Longwood Screening Facility, Harvard Medical School, 2010)
# In all, about 52,000 compounds went through this assay and about 1,700 (3.3%) were called active. No stated cut-off is given here; in the data, active means survival mostly below about 52% (no sharp cut-off); inactive means mostly above about 56%. The list shows a part of the results.
# System: Wild type
# Test: growth inhibition of S. aureus wild type versus tarO mutant, primary screen, teichoic acid synthesis inhibitors, RN4220, OD600 (AID 463173)
# Settings: S. aureus RN4220 wild type/DeltatarO growth, OD600, 18 h, active compounds read low, screened at 18.75 µg/mL (by protocol)
row,SMILES,survival
1,COc1ccc(OCc2ccc(-c3nc(C#N)c(N4CCN(C)CC4)o3)o2)cc1,inactive: 74%
2,CCC1CN(C(=O)NCc2cccc(OC)c2)c2cc(Cl)ccc2O1 (stereo unspecified),inactive: 78%
3,Cc1ccccc1C(=O)c1cccn1CC(=O)NCc1ccc(Cl)cc1,inactive: 98%
4,CC(C)(C)C(=O)N(CCc1ccccc1)Cc1nc2ccccc2c(=O)[nH]1,inactive: 107%
5,COc1ccccc1CNC(=O)Cc1c(C)c2c(cc(C)c3c(C)c(C)oc32)oc1=O,inactive: 87%
6,CCCC(=O)N(C)c1nnc(-c2ccc(F)cc2)s1,inactive: 107%
7,CCCCC1CCC(C(=O)N2CC(=O)Nc3ccc(F)cc3C2c2ccc(F)cc2)CC1 (stereo unspecified),inactive: 77%
8,Cc1cccc(N2CCN(C(c3nnnn3C3CCCC3)C(C)C)CC2)c1C (stereo unspecified),inactive: 98%
9,CCOC(=O)c1cc2c(=O)n3ccccc3nc2n(CC2CCCO2)c1=NC(=O)c1ccc(C(C)(C)C)cc1 (stereo unspecified),inactive: 90%
10,Cc1nc2sc(C(=O)N(C)Cc3ccccc3)c(NC(=O)c3ccccc3)c2c(C)c1Cl,inactive: 87%
11,CCN(CC)c1nn2c(=O)c(C(=O)NCCc3ccc(C)cc3)cnc2s1,inactive: 82%
12,COc1ccc(NC(=O)c2ccc(CN3C(=O)CCn4nc(C)cc43)cc2)c(OC)c1,inactive: 73%
13,CCn1c2ccccc2c2nnc(N3CCN(c4ccc(F)cc4)CC3)nc21,inactive: 83%
14,CCOC(=O)c1c(NC(=O)COc2cccc(C(F)(F)F)c2)sc2c1CCC(C)C2 (stereo unspecified),inactive: 74%
15,COc1ccc(NC(=O)CSc2cn(CC(=O)N3CCCCC3)c3ccccc23)c(OC)c1,inactive: 95%
16,CCCC(=O)Nc1ccc2c(c1)nc(CN1CCN(C(=O)OCC)CC1)n2C(C)C,inactive: 117%
17,CCOc1ccc(CNC(=O)c2ccc(Sc3ccc(Cl)cc3)c(NC(C)=O)c2)cc1,inactive: 115%
18,Cc1cc(C)cc(Nc2ncnc3c2nc2n3CCCC2)c1,inactive: 67%
19,CC(C)CCNC(=O)CN1C(=O)CCn2nc(-c3cn(C)c4ccccc34)cc21,inactive: 87%

row,SMILES,survival
1,CCOc1ccc(NC(=O)CSc2oc(-c3ccco3)nc2S(=O)(=O)c2ccc(C)cc2)cc1,inactive: 64%
2,COc1ccc(C)c2sc(NC(=O)c3ccc(S(=O)(=O)N4CCCCC4)cc3)nc12,inactive: 90%
3,CC(C)OC(=O)CSc1nc2cc3c(cc2cc1C#N)OCO3,inactive: 103%
4,COC(=O)c1ccc(C=Nc2ccc(O)c(-c3nc4ccccc4o3)c2)cc1,inactive: 98%
5,COc1ccc(N2CC(NC(=O)COc3ccccc3F)CC2=O)cc1OC (stereo unspecified),inactive: 65%
6,Cc1nc(S(=O)(=O)N2CCN(c3ccc(Cl)cc3)CC2)cn1C,inactive: 73%
7,Cc1nnc(SCc2cc(=O)c3ccccc3[nH]2)s1,inactive: 140%
8,CCOc1ccc(S(=O)(=O)NCCc2csc(-c3ccc(Cl)cc3)n2)cc1,inactive: 77%
9,CCCN1CCN(CCCNC(=O)c2cc3c(Cl)nc4ccccc4c3s2)CC1,inactive: 80%
10,CCCOc1ccc(NC(=O)CC2C(=O)N(c3ccc(C)cc3)C(=O)N2C(C)C)cc1 (stereo unspecified),inactive: 133%
11,CCCOc1ccc(/C=C/C(=O)Nc2sc(C)c(C)c2C(=O)OCC)cc1OC,inactive: 87%
12,CCOc1ccc(CCNC(=O)c2ccc(-c3nc(CSc4ccc(C)cc4)c(C)o3)cc2)cc1,inactive: 60%
13,COc1ccc(OC)c(NC(=O)CCN2CCN(Cc3cccc4ccccc34)CC2)c1,inactive: 110%
14,CCN(Cc1nc(-c2cccc(C)c2)no1)S(=O)(=O)c1ccc(C)cc1,inactive: 74%
15,O=C(COc1ccccc1)Nc1sc2c(c1C(=O)Nc1ccccc1Cl)CCCCC2,inactive: 73%
16,COC(=O)c1cc(NC(=O)Nc2ccc3snnc3c2)cc(C(=O)OC)c1,inactive: 103%
17,CC1CCCCN1C(=O)Cn1cc(C(=O)C2CC2)c2ccccc21 (stereo unspecified),inactive: 103%
18,Cc1cccc(C)c1NC(=O)CN1C(=O)CCSc2ccc(S(=O)(=O)N3CCCC3)cc21,inactive: 72%
19,Cc1ccc(C)c(N2C(=O)N(Cc3c(F)cccc3Cl)c3ccccc3S2(=O)=O)c1,inactive: 85%

row,SMILES,survival
1,COc1ccc(N(CC(=O)Nc2ccc(C)c(C)c2)S(=O)(=O)c2ccc(C)cc2)cc1OC,inactive: 74%
2,O=C(NCc1cccnc1)c1ccc(NC(=O)c2ccco2)cc1,inactive: 91%
3,Cc1ccccc1-c1noc(-c2ccc(N3CCN(c4ccccc4)CC3)c([N+](=O)[O-])c2)n1,inactive: 83%
4,CC(=O)OCc1cc(=O)n2nc(C3CCCCC3)sc2n1,inactive: 56%
5,Cc1c(Cl)cccc1-n1ncc(C(=O)N2CCN(C)CC2)c1C1CCN(C(=O)OC(C)(C)C)CC1,inactive: 87%
6,COc1ccc(S(=O)(=O)n2nc(C)c(S(=O)(=O)N3CCCCC3)c2C)cc1,inactive: 63%
7,CC1CCN(C(=O)c2ccc3c(c2)N(Cc2ccccc2F)C(=O)c2ccccc2S3(=O)=O)CC1,inactive: 93%
8,Cc1ccc(NC(=O)C(=O)NCC(c2cccnc2)N2CCOCC2)cc1 (stereo unspecified),inactive: 85%
9,C=C(C)Cn1c(SCC(=O)Nc2ccccc2C)nc2sc3c(c2c1=O)CCCC3,inactive: 109%
10,COc1ccccc1N1CCN(C(=O)c2cc3c(=O)n(C)c4ccccc4c3s2)CC1,inactive: 76%
11,COc1ccc(CNC(=O)Cn2nc(C)n3cccc3c2=O)cc1,inactive: 88%
12,COc1ccc(-c2nc(SCC(=O)NC3CCCC3)c(-c3ccc(OC)cc3)[nH]2)cc1,inactive: 89%
13,COc1ccccc1-c1noc(-c2ccc(N3CCOCC3)c([N+](=O)[O-])c2)n1,inactive: 99%
14,COc1ccc(-c2nsc3c(N4CCN(S(=O)(=O)c5cccc(F)c5)CC4)ncnc23)cc1,inactive: 104%
15,COCCCN(Cc1ccco1)C(=O)c1cc2c(s1)-c1ccccc1OC2,active: 12%
16,CC(C)Cn1c(=O)c2ccccc2n2c(CCC(=O)N3CCN(c4cccc(Cl)c4)CC3)nnc12,inactive: 72%
17,CC(=O)c1ccc(N2CCN(c3ncnc4c3c(-c3ccccc3)cn4-c3ccc(C)c(Cl)c3)CC2)cc1,inactive: 72%
18,COc1ccc(C(=O)NCCn2cc(SCc3cccc(F)c3)c3ccccc32)cc1OC,inactive: 68%
